Assay results as given in paper PMC4232260, “The crystal structure of the RhoA–AKAP-Lbc DH–PH domain complex” (Biochemical Journal, 2014).

Assays:
Conditions in all cases: both partners purified
AKAP-Lbc DH domain [1] = target: T1, AKAP-Lbc DH domain (UniProt Q12802-2 1976-2211); assay: ITC; without GDP: RhoA freed of nucleotide (5 mM EDTA, alkaline phosphatase, gel filtration); 0.6 mM RhoA in the syringe, 0.04 mM DH or DH-PH domain in the cell; 15°C; GF buffer (50 mM Hepes pH 7.5, 500 mM NaCl, 5% glycerol, 0.5 mM TCEP); single-site model
T1 construct: DH domain, Glu1976-Lys2211, terminating at the end of helix alphaI; numbers count on: AKAP13 isoform 1, NP_006729.4; Tag removal is told only through 'a similar protocol'; also called AKAP13 DH domain; DH domain alone; source: E. coli, purified following a similar protocol as the DH-PH domain; not shown: His6, N-terminal, cleaved
T1 sequence (looked up): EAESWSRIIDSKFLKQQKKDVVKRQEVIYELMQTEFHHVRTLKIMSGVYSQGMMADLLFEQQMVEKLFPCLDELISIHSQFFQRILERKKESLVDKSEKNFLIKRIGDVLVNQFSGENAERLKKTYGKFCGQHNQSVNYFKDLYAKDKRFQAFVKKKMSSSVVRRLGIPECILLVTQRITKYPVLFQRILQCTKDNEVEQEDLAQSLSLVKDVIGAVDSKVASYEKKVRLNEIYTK

AKAP-Lbc DH-PH domain [2] = target: T2, AKAP-Lbc DH-PH domain (UniProt Q12802-2 1973-2342); assay: as above
T2 construct: numbers count on: AKAP13 isoform 1, NP_006729.4; TEV cleavage at * would leave SM at the N-terminus; also called AKAP13 DH-PH; AKAP-Lbc RhoGEF domain; source: E. coli BL21(DE3) with pRARE2, purified (Ni2+-Sepharose, TEV cleavage, gel filtration); not shown: His6, N-terminal, cleaved
T2 sequence (looked up): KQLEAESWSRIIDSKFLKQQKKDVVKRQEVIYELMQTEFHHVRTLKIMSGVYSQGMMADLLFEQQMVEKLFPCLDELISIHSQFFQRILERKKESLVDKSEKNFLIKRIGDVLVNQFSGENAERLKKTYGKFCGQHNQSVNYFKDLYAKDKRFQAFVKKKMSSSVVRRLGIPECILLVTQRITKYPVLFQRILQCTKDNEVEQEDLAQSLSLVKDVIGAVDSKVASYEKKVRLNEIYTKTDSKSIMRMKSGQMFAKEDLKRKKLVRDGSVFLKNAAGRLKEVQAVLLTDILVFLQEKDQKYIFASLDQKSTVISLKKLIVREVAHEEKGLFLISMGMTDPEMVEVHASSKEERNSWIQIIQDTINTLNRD

AKAP-Lbc DH domain [3] = target: T1, AKAP-Lbc DH domain; assay: ITC; with GDP: 0.6 mM RhoA in the syringe, 0.04 mM DH or DH-PH domain in the cell; 15°C; GF buffer (50 mM Hepes pH 7.5, 500 mM NaCl, 5% glycerol, 0.5 mM TCEP) with 50 uM GDP; single-site model
AKAP-Lbc DH-PH domain [4] = target: T2, AKAP-Lbc DH-PH domain; assay: as above

B1: RhoA ([…]) (domain or fragment)
chain: not shown
notes: RhoA, […]; DNA template from the Mammalian Gene Collection; TEV cleavage at * would leave SM at the N-terminus; also called RhoA-GDP; apo-RhoA; source: E. coli BL21(DE3) with pRARE2, purified (Ni2+-Sepharose, TEV cleavage, gel filtration); not shown: His6, N-terminal, cleaved
- Kd (AKAP-Lbc DH domain [1]): 10.2 µM
- dH (AKAP-Lbc DH domain [1]): 12.7 kcal/mol
- stoichiometry N (AKAP-Lbc DH domain [1]): 0.68
- Kd (AKAP-Lbc DH-PH domain [2]): 33.9 µM
- dH (AKAP-Lbc DH-PH domain [2]): 49.6 kcal/mol
- stoichiometry N (AKAP-Lbc DH-PH domain [2]): 0.35
- Kd (AKAP-Lbc DH domain [3]): 21.3 µM
- dH (AKAP-Lbc DH domain [3]): 20.2 kcal/mol
- stoichiometry N (AKAP-Lbc DH domain [3]): 0.55
- Kd (AKAP-Lbc DH-PH domain [4]): 18.1 µM
- dH (AKAP-Lbc DH-PH domain [4]): 7.6 kcal/mol
- stoichiometry N (AKAP-Lbc DH-PH domain [4]): 0.55
